Data as given in PMC4980431, “Ctf4 Is a Hub in the Eukaryotic Replisome that Links Multiple CIP-Box Proteins to the CMG Helicase” (Molecular Cell, 2016).
Results are given in words; binding and its absence hold for the method and conditions named. Some binding calls cover weakened binding; strength is not graded here.

T1: Ctf4 461–927 (budding yeast) (UniProt Q01454)
T1 sequence: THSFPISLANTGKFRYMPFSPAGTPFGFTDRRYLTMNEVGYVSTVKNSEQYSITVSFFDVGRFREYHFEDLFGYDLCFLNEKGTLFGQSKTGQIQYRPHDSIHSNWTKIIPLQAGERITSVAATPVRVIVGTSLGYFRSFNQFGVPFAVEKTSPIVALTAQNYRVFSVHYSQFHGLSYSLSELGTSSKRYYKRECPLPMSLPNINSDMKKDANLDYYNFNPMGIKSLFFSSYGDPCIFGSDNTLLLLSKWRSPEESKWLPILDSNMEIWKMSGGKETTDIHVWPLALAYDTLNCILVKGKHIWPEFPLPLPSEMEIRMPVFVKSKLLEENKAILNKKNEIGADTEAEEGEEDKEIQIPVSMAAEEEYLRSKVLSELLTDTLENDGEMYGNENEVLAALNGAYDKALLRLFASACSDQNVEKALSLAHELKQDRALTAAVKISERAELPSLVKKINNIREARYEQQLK

T2: wild-type Ctf4 (two-hybrid, limits not stated) (budding yeast) (UniProt Q01454)
T2 sequence: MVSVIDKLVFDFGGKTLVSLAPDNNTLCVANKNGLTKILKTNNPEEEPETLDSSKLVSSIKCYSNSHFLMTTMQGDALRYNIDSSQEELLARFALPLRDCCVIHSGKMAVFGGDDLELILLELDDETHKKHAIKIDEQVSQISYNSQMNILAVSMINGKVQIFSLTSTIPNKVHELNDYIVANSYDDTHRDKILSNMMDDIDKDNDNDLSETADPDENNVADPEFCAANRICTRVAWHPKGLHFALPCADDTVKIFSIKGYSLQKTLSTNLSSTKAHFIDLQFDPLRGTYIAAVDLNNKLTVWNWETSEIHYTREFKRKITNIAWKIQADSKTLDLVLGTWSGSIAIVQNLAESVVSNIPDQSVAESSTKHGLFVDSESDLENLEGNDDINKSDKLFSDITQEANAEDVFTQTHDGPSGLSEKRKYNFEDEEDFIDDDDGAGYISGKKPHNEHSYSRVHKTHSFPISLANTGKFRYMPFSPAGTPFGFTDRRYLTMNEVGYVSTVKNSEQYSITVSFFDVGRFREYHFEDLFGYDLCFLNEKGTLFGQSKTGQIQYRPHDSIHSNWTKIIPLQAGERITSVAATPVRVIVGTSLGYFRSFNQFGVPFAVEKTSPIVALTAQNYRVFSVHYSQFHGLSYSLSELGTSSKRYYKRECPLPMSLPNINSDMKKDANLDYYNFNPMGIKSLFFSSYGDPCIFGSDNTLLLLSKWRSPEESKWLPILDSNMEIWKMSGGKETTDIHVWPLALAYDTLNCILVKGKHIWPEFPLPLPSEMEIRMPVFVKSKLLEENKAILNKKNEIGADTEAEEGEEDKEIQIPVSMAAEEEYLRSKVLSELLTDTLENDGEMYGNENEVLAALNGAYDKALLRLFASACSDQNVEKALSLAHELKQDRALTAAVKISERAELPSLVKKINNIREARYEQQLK

T3: Ctf4-4E (two-hybrid) (budding yeast) (UniProt Q01454)
T3 sequence: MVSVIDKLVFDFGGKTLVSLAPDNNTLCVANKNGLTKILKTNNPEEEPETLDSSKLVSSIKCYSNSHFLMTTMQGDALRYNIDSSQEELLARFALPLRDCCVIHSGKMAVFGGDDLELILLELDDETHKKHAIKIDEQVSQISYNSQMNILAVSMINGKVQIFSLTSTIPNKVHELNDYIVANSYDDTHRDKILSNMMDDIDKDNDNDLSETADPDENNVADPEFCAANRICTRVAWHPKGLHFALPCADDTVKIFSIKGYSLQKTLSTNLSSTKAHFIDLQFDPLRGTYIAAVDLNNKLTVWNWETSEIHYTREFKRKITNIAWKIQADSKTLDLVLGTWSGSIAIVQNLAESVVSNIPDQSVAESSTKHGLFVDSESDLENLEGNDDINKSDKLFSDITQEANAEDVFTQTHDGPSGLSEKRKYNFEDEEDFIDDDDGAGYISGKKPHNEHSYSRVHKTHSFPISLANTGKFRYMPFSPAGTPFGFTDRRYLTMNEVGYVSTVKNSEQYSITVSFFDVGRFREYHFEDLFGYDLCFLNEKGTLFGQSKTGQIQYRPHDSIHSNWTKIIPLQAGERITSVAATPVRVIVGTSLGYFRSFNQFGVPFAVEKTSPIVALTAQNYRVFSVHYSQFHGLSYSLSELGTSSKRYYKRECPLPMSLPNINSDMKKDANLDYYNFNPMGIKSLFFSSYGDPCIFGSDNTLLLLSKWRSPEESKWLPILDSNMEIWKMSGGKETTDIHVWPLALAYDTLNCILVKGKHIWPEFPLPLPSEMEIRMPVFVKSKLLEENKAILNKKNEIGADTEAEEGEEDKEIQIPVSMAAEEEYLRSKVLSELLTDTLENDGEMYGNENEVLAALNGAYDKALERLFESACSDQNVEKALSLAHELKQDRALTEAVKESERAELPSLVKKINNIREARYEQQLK

T4: Ctf4-3E (two-hybrid) (budding yeast) (UniProt Q01454)
T4 sequence: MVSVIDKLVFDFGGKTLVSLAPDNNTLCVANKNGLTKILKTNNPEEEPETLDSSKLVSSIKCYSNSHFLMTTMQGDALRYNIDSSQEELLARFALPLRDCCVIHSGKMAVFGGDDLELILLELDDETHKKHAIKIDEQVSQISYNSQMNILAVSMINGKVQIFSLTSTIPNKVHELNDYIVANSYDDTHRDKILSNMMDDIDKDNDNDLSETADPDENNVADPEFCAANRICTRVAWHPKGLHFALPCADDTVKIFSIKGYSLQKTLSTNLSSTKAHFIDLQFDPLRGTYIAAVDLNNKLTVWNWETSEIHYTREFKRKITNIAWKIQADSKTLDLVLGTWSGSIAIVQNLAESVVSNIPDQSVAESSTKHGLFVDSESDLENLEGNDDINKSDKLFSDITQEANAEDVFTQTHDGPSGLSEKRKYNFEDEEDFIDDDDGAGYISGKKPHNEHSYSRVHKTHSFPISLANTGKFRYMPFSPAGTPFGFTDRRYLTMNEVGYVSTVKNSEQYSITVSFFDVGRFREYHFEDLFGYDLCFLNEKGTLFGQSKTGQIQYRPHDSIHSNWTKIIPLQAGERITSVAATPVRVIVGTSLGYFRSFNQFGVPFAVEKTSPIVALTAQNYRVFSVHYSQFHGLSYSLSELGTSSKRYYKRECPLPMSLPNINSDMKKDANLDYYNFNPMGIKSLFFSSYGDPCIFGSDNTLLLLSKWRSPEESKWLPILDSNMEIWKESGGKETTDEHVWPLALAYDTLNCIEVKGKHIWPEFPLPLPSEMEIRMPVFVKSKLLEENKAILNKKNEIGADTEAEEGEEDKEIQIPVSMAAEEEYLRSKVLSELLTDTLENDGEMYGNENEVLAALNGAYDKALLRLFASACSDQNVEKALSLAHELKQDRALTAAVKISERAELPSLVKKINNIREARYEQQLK


Key:
[1] = target: T1, Ctf4 461–927 (budding yeast); assay: two-hybrid; directed yeast two-hybrid assay, fusions to the activation and DNA-binding domains of Gal4
[2] = target: T2, wild-type Ctf4 (two-hybrid, limits not stated) (budding yeast); assay: as above
[3] = target: T1, Ctf4 461–927 (budding yeast); assay: as above; remark: listed apart in the source
[4] = target: T3, Ctf4-4E (two-hybrid) (budding yeast); assay: as above
[5] = target: T4, Ctf4-3E (two-hybrid) (budding yeast); assay: as above
[6] = target: T1, Ctf4 461–927 (budding yeast); assay: two-hybrid; yeast two-hybrid screen against amino acids 461–927 of Ctf4, performed by Hybrigenics

binding [2]	binding [3]	Molecule	other results
		full-length Dna2 (1–1,522) (two-hybrid) (from UniProt P38859 1-1522)	binding [1]: binds
binds	binds	full-length Tof2 (two-hybrid) (protein, UniProt Q02208 1-771) MIKMWRLQIVLVPPSAQDIITFLEARLNTPQSVSPMVQYNEDIITHNNSINNCSDPSPTSPSSQNSIQSNRSSDFINYLPNCKKFLHFTDGDNTLLQLSNEILTKFDRLYPNFKESIEIVSLQDRHGCDLDSEFIIKDVFENDGVVLVILKDELDWSRNQHISLLQLARQRRRQDNKPSTKSIVTEKRKKISKEDLSSISNKDTMHLIAKSSLKNNFINKSRVSTPLMNEILPLASKYDALNKEKCPMPLTSTVVASNVHKDVKDHARAKEGVVTQGSDNNKENIPSSTQQQKNDGAKRAESKDLDLLRNSSEDADYEPADENSPQISFDSIDTDFQLSTTSHTNSDMHIQYSNPSSGAHSPRKSSLEIKVQNKKGDDLPLNDKDIGENCRRIEAFSDEEDFNETDNDRADSFINNSKKASMGFRDINSDLDSVSFNSDIENAVQSTQSTKNVVSPPFFPEKELNNRLHQSQGKEALFRLVEKEFPDKSLGAASSTSHAKDVKIQETIRKLNRFKPTGETKVQKRNSITEPYYGKFGIMKKDKPKSITSKGVSLETKHFDDPNTIISGEKFAKFGKIKVKRKTDDVGSKVIEFKRKRNMGNRSLKDIFANAGKPPNAASTIKVVKLMRDPVDNSKDKVEATSNSTAQEQEQVSPKLPVMNSTPGKRKNGQAIPSSLERTPQLKKVKVTRSHSSPSSSSSMSLESSLDSSSSDDSDDDSDSRNVQVKKINFKTSHGPAGNSNGKPMLDVDDNEINTKKYQTPKYVESDEDDQ	binding [4]: binds; binding [5]: no binding
binds		Ctf4-4E (two-hybrid) (protein, UniProt Q01454 1-927) MVSVIDKLVFDFGGKTLVSLAPDNNTLCVANKNGLTKILKTNNPEEEPETLDSSKLVSSIKCYSNSHFLMTTMQGDALRYNIDSSQEELLARFALPLRDCCVIHSGKMAVFGGDDLELILLELDDETHKKHAIKIDEQVSQISYNSQMNILAVSMINGKVQIFSLTSTIPNKVHELNDYIVANSYDDTHRDKILSNMMDDIDKDNDNDLSETADPDENNVADPEFCAANRICTRVAWHPKGLHFALPCADDTVKIFSIKGYSLQKTLSTNLSSTKAHFIDLQFDPLRGTYIAAVDLNNKLTVWNWETSEIHYTREFKRKITNIAWKIQADSKTLDLVLGTWSGSIAIVQNLAESVVSNIPDQSVAESSTKHGLFVDSESDLENLEGNDDINKSDKLFSDITQEANAEDVFTQTHDGPSGLSEKRKYNFEDEEDFIDDDDGAGYISGKKPHNEHSYSRVHKTHSFPISLANTGKFRYMPFSPAGTPFGFTDRRYLTMNEVGYVSTVKNSEQYSITVSFFDVGRFREYHFEDLFGYDLCFLNEKGTLFGQSKTGQIQYRPHDSIHSNWTKIIPLQAGERITSVAATPVRVIVGTSLGYFRSFNQFGVPFAVEKTSPIVALTAQNYRVFSVHYSQFHGLSYSLSELGTSSKRYYKRECPLPMSLPNINSDMKKDANLDYYNFNPMGIKSLFFSSYGDPCIFGSDNTLLLLSKWRSPEESKWLPILDSNMEIWKMSGGKETTDIHVWPLALAYDTLNCILVKGKHIWPEFPLPLPSEMEIRMPVFVKSKLLEENKAILNKKNEIGADTEAEEGEEDKEIQIPVSMAAEEEYLRSKVLSELLTDTLENDGEMYGNENEVLAALNGAYDKALERLFESACSDQNVEKALSLAHELKQDRALTEAVKESERAELPSLVKKINNIREARYEQQLK	
	binds	Dna2 120–456 (two-hybrid) (domain or fragment, UniProt P38859 120-456) DGPMEEVIWKYSPLQRDMSDKTTSAAEYSDDYEDVQNPSSTPIVPNRLKTVLSFTNIQVPNADVNQLIQENGNEQVRPKPAEISTRESLRNIDDILDDIEGDLTIKPTITKFSDLPSSPIKAPNVEKKAEVNAEEVDKMDSTGDSNDGDDSLIDILTQKYVEKRKSESQITIQGNTNQKSGAQESCGKNDNTKSRGEIEDHENVDNQAKTGNAFYENEEDSNCQRIKKNEKIEYNSSDEFSDDSLIELLNETQTQVEPNTIEQDLDKVEKMVSDDLRIATDSTLSAYALRAKSGAPRDGVVRLVIVSLRSVELPKIGTQKILECIDGKGEQSSVVVR	binding [6]: binds
